# Source: publication PMC4336329 (PLoS ONE, 2015)
# In all, about 310,000 compounds went through this assay and about 2,200 (0.71%) showed an effect of 50% or more. Effects have a minus sign here. This is one part of the list.
# Target: human ether-à-go-go-related gene (hERG) potassium channel (human, UniProt Q12809)
# Test: primary screen, population patch clamp on CHO cells stably expressing hERG
# Chain of human ether-à-go-go-related gene (hERG) potassium channel (Q12809 whole entry, looked up): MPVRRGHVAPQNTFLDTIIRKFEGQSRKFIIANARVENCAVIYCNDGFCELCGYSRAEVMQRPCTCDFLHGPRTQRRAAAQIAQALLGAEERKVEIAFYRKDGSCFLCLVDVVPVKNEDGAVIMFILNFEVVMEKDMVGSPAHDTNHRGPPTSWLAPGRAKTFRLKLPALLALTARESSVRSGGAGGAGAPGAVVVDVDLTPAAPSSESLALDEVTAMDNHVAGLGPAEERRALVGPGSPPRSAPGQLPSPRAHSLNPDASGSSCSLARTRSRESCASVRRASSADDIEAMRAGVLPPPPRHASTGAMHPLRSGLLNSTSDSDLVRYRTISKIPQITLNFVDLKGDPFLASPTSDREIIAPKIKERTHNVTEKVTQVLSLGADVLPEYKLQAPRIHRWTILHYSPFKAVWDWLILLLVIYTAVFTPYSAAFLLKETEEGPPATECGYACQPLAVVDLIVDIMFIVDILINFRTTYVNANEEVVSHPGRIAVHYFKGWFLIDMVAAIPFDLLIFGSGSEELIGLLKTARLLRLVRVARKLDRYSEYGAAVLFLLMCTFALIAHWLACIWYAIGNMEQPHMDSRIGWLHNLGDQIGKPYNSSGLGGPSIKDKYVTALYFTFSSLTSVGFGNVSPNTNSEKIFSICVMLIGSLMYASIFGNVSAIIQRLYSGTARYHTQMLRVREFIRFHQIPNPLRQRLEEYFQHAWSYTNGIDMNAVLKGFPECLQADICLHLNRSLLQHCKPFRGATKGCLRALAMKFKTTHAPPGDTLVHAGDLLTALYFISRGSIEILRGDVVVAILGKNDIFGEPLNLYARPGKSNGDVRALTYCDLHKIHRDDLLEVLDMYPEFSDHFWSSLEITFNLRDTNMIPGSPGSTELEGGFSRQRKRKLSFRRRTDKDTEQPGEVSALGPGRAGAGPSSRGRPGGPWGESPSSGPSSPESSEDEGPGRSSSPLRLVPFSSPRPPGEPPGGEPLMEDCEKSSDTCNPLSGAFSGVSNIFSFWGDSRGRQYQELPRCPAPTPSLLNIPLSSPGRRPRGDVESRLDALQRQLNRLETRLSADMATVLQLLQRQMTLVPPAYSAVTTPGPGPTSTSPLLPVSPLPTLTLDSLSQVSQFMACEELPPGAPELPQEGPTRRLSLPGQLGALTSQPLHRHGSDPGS
row,Compound,"hERG current change (%, negative = inhibition) at 1uM [%]"
1,CCOC(=O)C1CCN(C(=O)Cn2cnc3sc(C)c(S(=O)(=O)N4CCOCC4)c3c2=O)CC1,5.13
2,CCOC(=O)CCc1cnccc1-c1cccc(OC)c1O,6.86
3,CC(=O)N(CCC(c1ccco1)C(C)C)Cc1ccc(OC(C)C)cc1 (stereo not shown),10.4
4,CCOc1ccc(N(C(=O)c2ccccc2Cl)C2=NC(C)(C)CS2)cc1,8.08
5,O=C(O)Cn1cc(/C=C2\SC(=O)N(c3ccccc3)C2=O)c2ccccc21,3.97
6,CCc1ccccc1N(CC)C(=O)CCc1nc(-c2ccc(C)cc2)no1,3.77
7,CCOC(=O)c1c(CN2CCCCC2)oc2ccc(OC)cc12,-12.4
8,CN(C(=O)CSc1ccc(S(=O)(=O)N2CCCCC2)cn1)c1ccccc1,3.05
9,O=C(NCC1CCCO1)/C(=C/c1cn(-c2ccccc2)nc1-c1cccnc1)NC(=O)c1ccccc1 (stereo not shown),9.5
10,Cc1nn(CC(=O)NCCN2CCOCC2)c(=O)c2cc3sccc3n12,30.3
11,O=C(Oc1ccc(OC(=O)C2CCC2)cc1)C1CCC1,10.1
12,Cc1cccc2cc(CNCC3CCCO3)c(Cl)nc12 (stereo not shown),2.04
13,CC1CCCCN1C(=O)c1c(Cl)cnn1C (stereo not shown),12.7
14,NS(=O)(=O)c1ccc(CCNC(=O)CCNC(=O)c2ccco2)cc1,15.9
15,COc1cc(CN(C)Cc2ccccc2)cc(OC)c1O,6.67
16,CC(C)(C)c1ccc(C(=O)Nc2cccc(-n3cnnn3)c2)cc1,6.38
17,COc1ccc(/C=C2\SC(=O)N(CCC(=O)N(C)C3CCS(=O)(=O)C3)C2=O)cc1 (stereo not shown),9.44
18,COc1ccc(S(=O)(=O)N(CC(C)C)C2CCS(=O)(=O)C2)cc1OC (stereo not shown),13
19,CCSc1nc2c(c(=O)n1CC)SC(C)C2 (stereo not shown),8.22
20,Cc1oc(-c2cc(F)ccc2F)nc1CN1CCN(c2ncnc3ccccc23)CC1,-7.23
21,COc1ccc(N2CCN(C3CC(=O)N(C)C3=O)CC2)cc1 (stereo not shown),18
22,CCOP(=O)(OCC)C(Cc1ccccc1)NC(C)=O (stereo not shown),11.3

row,Compound,"hERG current change (%, negative = inhibition) at 1uM [%]"
1,Cc1ccc(C(=O)/C=C/c2cc(C#N)n(C)c2C)cc1,18
2,O=C(Oc1ccc(C(=S)N2CCOCC2)cc1)c1cccc([N+](=O)[O-])c1,11.7
3,COc1cccc(C2C(C#N)=C(N)Oc3cc(C)oc(=O)c32)c1OC (stereo not shown),6.13
4,CCC1=NN2C(=N)/C(=C/c3ccc(OS(=O)(=O)c4ccc(C)cc4)c(OC)c3)C(=O)N=C2S1,9.41
5,CCc1nnc(NC(=O)C2CCCN2S(=O)(=O)c2ccccc2)s1 (stereo not shown),13.1
6,CC(=O)c1ccc(NC(=O)CSc2nnc(-c3ccncc3)n2C2CC2)cc1,9.22
7,O=C(NCc1ccc(Cl)c(Cl)c1)c1ccc2c(c1)OCO2,-2.74
8,CC(=O)Nc1ccc(NC(=O)CN(c2ccc([N+](=O)[O-])cc2)S(=O)(=O)c2ccccc2)cc1,9.06
9,Cc1ccc(C(=O)O)cc1S(=O)(=O)N1CCOCC1,12.9
10,O=C(CN(c1cccc(Cl)c1)S(=O)(=O)c1ccc(Cl)cc1)N1CCc2ccccc2C1,-17.5
11,COc1cc(C(=O)OCC(=O)Nc2c(F)c(F)c(F)c(F)c2F)cc(OC)c1OC,11.6
12,NC(=O)c1c(NC(=O)CCCn2cnc([N+](=O)[O-])n2)sc2c1CCCC2,3.37
13,O=C(CN1CCOc2ccccc21)N1CCN(c2cccc(Cl)c2)CC1,1.22
14,COc1ccc(CN2CCN(c3ccccc3F)CC2)c(OC)c1,-57.8
15,Cc1noc(NS(=O)(=O)c2ccc(NC(=O)C(F)(F)C(F)(F)C(F)(F)F)cc2)c1C,10.9
16,Cc1ccc(N2C(=O)C3C4C=CC(CNC(=S)Nc5cccc(Cl)c5)(O4)C3C2=O)cc1 (stereo not shown),-3.83
17,CCC(O)(CCN1CCCCC1)c1ccccc1 (stereo not shown),3.27
18,O=C(Nc1cn(-c2ccccc2)nc1-c1ccc(Cl)cc1)c1ccccc1,7.01
19,COc1ccc(S(=O)(=O)N(C)C)cc1NC(=O)COC(=O)Cn1cnc2ccccc2c1=O,5.03
20,CCC(Cc1ccccc1)NC(=O)CCn1cccc1 (stereo not shown),10
21,O=C(CC1C(=O)NCCN1CC1CCCCC1)NC1(c2ccccc2)CC1 (stereo not shown),18.4
22,O=C(COC(=O)c1ccccc1O)Nc1ccc(N2CCOCC2)cc1,5.13

row,Compound,"hERG current change (%, negative = inhibition) at 1uM [%]"
1,O=C(CN1C(=O)C(=O)N(Cc2ccco2)C1=O)NC1CCCCC1,21.2
2,O=C(Nc1ccc(N2CCOCC2)cc1)c1ccc(Cl)c(S(=O)(=O)N2CCCC2)c1,12.6
3,Cc1cccc(/C(N)=N/OC(=O)CCCc2ccccc2)c1,8.17
4,O=C(NCc1cccnc1)c1ccc(Cl)c(S(=O)(=O)Nc2ccccc2C(=O)NCc2cccnc2)c1,2.3
5,COC(=O)c1ccccc1NC(=O)CSc1nnc(-c2cccnc2)n1N,2.17
6,Cc1c(C(=O)NC(C)CN2CCCCC2)oc2ccccc12 (stereo not shown),-7.81
7,O=C(COc1cccc2ccccc12)NCc1cccnc1,9.41
8,O=C1c2ccccc2CSc2c(O)cccc21,1.06
9,CS(=O)(=O)N(CC(=O)N1CCCCCC1)c1cccc(Br)c1,-4.76
10,CCC(C)(C(=O)Nc1ccc2c(c1)OCCO2)N(C(C)=O)c1ccc(C(N)=O)cc1 (stereo not shown),-6.44
11,S=C(Nc1cccc(Cl)c1)Nc1ccccc1Oc1ccccc1,11.1
12,O=c1/c(=C/c2cccc3ccccc23)sc2ncnn12,5.17
13,COc1cc(/C=N/NC(=O)c2ccc3nc[nH]c3c2)cc(OC)c1OC,10.6
14,CCOC(=O)c1cnc2c(-c3ccccc3)c(-c3ccccc3)nn2c1C,15.5
15,CC(=O)N=c1sccn1CC(=O)c1ccc([N+](=O)[O-])cc1,-6.56
16,O=C1NC(Nc2ccccn2)(C(F)(F)F)C(=O)N1c1ccc(F)cc1 (stereo not shown),9.43
17,Cc1c(NC(=O)C(C)Oc2cccc(Cl)c2)c(=O)n(-c2ccccc2)n1C (stereo not shown),10.7
18,COc1ccc(C(=O)N[C@H](C(=O)NCc2ccccc2)C(C)C)cc1,10.6
19,COc1ccc(/C=N/NC(=O)c2c(C)nnn2-c2nonc2N)cc1OC,4.23
20,O=C1CC(c2ccccc2)N1c1ccccc1 (stereo not shown),-0.587
21,CC(C)(C)c1nnc(NC(=O)C2CCN(C(=O)c3ccco3)CC2)s1,17.9
22,CC1Cc2ccccc2N1CC(=O)Nc1ccc2c(c1)OCO2 (stereo not shown),8.48

row,Compound,"hERG current change (%, negative = inhibition) at 1uM [%]"
1,CC(=O)Nc1cccc(NC(=O)c2cc(C)on2)c1,3.33
2,COc1cccc(C(=O)NNC(=O)Cc2csc(N)n2)c1,6.02
3,CSc1ccccc1NC(=O)c1cnc2scc(C)n2c1=O,7.83
4,CC(C)CCN(C(=O)c1ccc(N2CCCC2=O)cc1)c1c(N)n(Cc2ccccc2)c(=O)[nH]c1=O,16.1
5,Cc1c(C)c(C)c(CO/N=C/c2cccs2)c(C)c1C,3.42
6,COc1ccc(C)cc1NC(=O)CCNS(=O)(=O)c1ccc2c(c1)CCC(=O)N2,4.47
7,CCOc1cccc(NC(=O)CC#N)c1,12.4
8,O=C1C=C(c2cccc(Cl)c2)C[C@@H](c2ccc(Cl)cc2)C1,14.6
9,CCc1nnc(NC(=O)C2CC(=O)N(c3ccc(C)cc3)C2)s1 (stereo not shown),2.64
10,O=C(O)c1csc(-n2nc(-c3ccccc3)cc2C(F)(F)F)n1,9.45
11,O=c1c2ccccc2nc(SCc2ccc([N+](=O)[O-])cc2)n1-c1ccc(Cl)cc1,4.42
12,CC(=O)c1c(C)n(CC(=O)NCc2ccco2)c2ccccc12,3.11
13,Cc1nc2cc(NC(=O)Nc3ccccc3Cl)ccc2n1C,3.73
14,COc1ccc2ncc(S(=O)(=O)c3ccccc3)c(N3CCC4(CC3)OCCO4)c2c1,-6.47
15,CCC1=NN(C(=O)CCc2ccc3c(c2)OCO3)C(O)(C(F)(F)F)C1 (stereo not shown),15.5
16,Cc1cccc(-[n+]2c(C)cc(C)c3c(=O)[nH]c(=O)[nH]c32)c1.[I-],4.1
17,Cc1ccc2nc(SCC(=O)Nc3ccc(F)c([N+](=O)[O-])c3)[nH]c2c1,2.21
18,COc1ccc(NC(=O)C2CCCN(C(=O)Nc3ccc(F)cc3)C2)cc1OC (stereo not shown),11.8
19,COc1cc(CCC(=O)OCc2nnc(-c3ccccc3)o2)cc(OC)c1OC,12.1
20,Cc1ccc2nccc(C(=O)N3CCCC(Nc4ccc(F)cc4)C3)c2c1 (stereo not shown),11.4
21,Cc1cc(C)nc(-n2nc(C)cc2NC(=O)CNC2CCCCC2)n1,-5.51
22,CCCN(CC1CCCO1)C(=O)c1cc(COc2cccc(OC)c2)on1 (stereo not shown),7.66
